Reference: the supplement of paper PMC8728848
The other results are listed elsewhere or left out.

Tests used:
Test in all cases: glycan array binding signal (z-score within array); higher = stronger binding
Conditions in all cases: glycan notation: IUPAC condensed, linker removed
[1] = biological target: GlcNAc(b1-4)GlcNAc(b1-4)GlcNAc(b1-4)GlcNAc(b1-4)GlcNAc
Outline: (§1)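 Glycan array data were curated from 3228 arrays in the Consortium for Functional Glycomics database and kept only where the protein sequence was available. Glycan names were converted to IUPAC-condensed notation, and columns mapping to the same glycan were averaged. The binding signal is a within-array Z-score, averaged across arrays of the same protein sequence at different concentrations or buffers and across linkers. Negative Z-scores can be read as non-binding.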

[2] = biological target: GlcNAc(b1-4)GlcNAc(b1-4)GlcNAc(b1-4)GlcNAc(b1-4)GlcNAc(b1-4)GlcNAc
Outline: as §1

[3] = biological target: GlcNAc(b1-4)[GlcNAc(b1-6)]GalNAc
Outline: as §1

[4] = biological target: GlcNAc(b1-6)Gal(b1-4)GlcNAc
Outline: as §1

GlcNAc(b1-6)GalNAc = biological target: GlcNAc(b1-6)GalNAc
Outline: as §1

[5] = biological target: GlcNAc6S(b1-3)Gal(b1-4)GlcNAc
Outline: as §1

Kdn(a2-3)Gal(b1-3)GalNAc = biological target: Kdn(a2-3)Gal(b1-3)GalNAc
Outline: as §1

Kdn(a2-3)Gal(b1-3)GlcNAc = biological target: Kdn(a2-3)Gal(b1-3)GlcNAc
Outline: as §1

Kdn(a2-3)Gal(b1-4)Glc = biological target: Kdn(a2-3)Gal(b1-4)Glc
Outline: as §1

Kdn(a2-3)Gal(b1-4)GlcNAc = biological target: Kdn(a2-3)Gal(b1-4)GlcNAc
Outline: as §1

[6] = biological target: Kdn(a2-3)Gal(b1-4)[Fuc(a1-3)]GlcNAc
Outline: as §1

Kdn(a2-6)Gal(b1-4)GlcNAc = biological target: Kdn(a2-6)Gal(b1-4)GlcNAc
Outline: as §1

[7] = biological target: Man(a1-2)Man(a1-2)Man(a1-3)Man
Outline: as §1

[8] = biological target: Man(a1-2)Man(a1-2)Man(a1-6)[Man(a1-3)]Man
Outline: as §1

Man(a1-2)Man(a1-3)Man = biological target: Man(a1-2)Man(a1-3)Man
Outline: as §1

[9] = biological target: Man(a1-2)Man(a1-3)[Man(a1-2)Man(a1-6)]Man
Outline: as §1

[10] = biological target: Man(a1-2)Man(a1-3)[Man(a1-2)Man(a1-6)]Man(a1-6)[Man(a1-2)Man(a1-2)Man(a1-3)]Man
Outline: as §1

[11] = biological target: Man(a1-2)Man(a1-3)[Man(a1-2)Man(a1-6)]Man(a1-6)[Man(a1-2)Man(a1-2)Man(a1-3)]Man(b1-4)GlcNAc(b1-4)GlcNAc
Outline: as §1

[12] = biological target: Man(a1-2)Man(a1-3)[Man(a1-6)]Man(a1-6)[Man(a1-2)Man(a1-3)]Man(b1-4)GlcNAc(b1-4)GlcNAc
Outline: as §1

[13] = biological target: Man(a1-2)Man(a1-6)[Man(a1-3)]Man(a1-6)[Man(a1-2)Man(a1-2)Man(a1-3)]Man
Outline: as §1

[14] = biological target: Man(a1-2)Man(a1-6)[Man(a1-3)]Man(a1-6)[Man(a1-2)Man(a1-2)Man(a1-3)]Man(b1-4)GlcNAc(b1-4)GlcNAc
Outline: as §1

Man(a1-3)[Man(a1-6)]Man = biological target: Man(a1-3)[Man(a1-6)]Man
Outline: as §1

[15] = biological target: Man(a1-3)[Man(a1-6)]Man(a1-6)[Man(a1-2)Man(a1-3)]Man(b1-4)GlcNAc(b1-4)GlcNAc
Outline: as §1

[16] = biological target: Man(a1-3)[Man(a1-6)]Man(a1-6)[Man(a1-3)]Man
Outline: as §1

[17] = biological target: Man(a1-3)[Man(a1-6)]Man(a1-6)[Man(a1-3)]Man(b1-4)GlcNAc(b1-4)GlcNAc
Outline: as §1

[18] = biological target: Man(a1-3)[Man(a1-6)]Man(b1-4)GlcNAc(b1-4)GlcNAc
Outline: as §1

[19] = biological target: Man(a1-3)[Man(a1-6)]Man(b1-4)GlcNAc(b1-4)[Fuc(a1-6)]GlcNAc
Outline: as §1

Man(a1-6)Man = biological target: Man(a1-6)Man
Outline: as §1

Man(b1-4)GlcNAc = biological target: Man(b1-4)GlcNAc
Outline: as §1

MurNAc(b1-4)GlcNAc = biological target: MurNAc(b1-4)GlcNAc
Outline: as §1

Neu5Ac(a2-3)Gal = biological target: Neu5Ac(a2-3)Gal
Outline: as §1

[20] = biological target: Neu5Ac(a2-3)Gal(b1-3)GalNAc
Outline: as §1

[21] = biological target: Neu5Ac(a2-3)Gal(b1-3)GalNAc(b1-3)Gal(a1-4)Gal(b1-4)Glc
Outline: as §1

[22] = biological target: Neu5Ac(a2-3)Gal(b1-3)GalNAc(b1-4)Gal(b1-4)Glc
Outline: as §1

[23] = biological target: Neu5Ac(a2-3)Gal(b1-3)GalNAc(b1-4)[Neu5Ac(a2-3)]Gal(b1-4)Glc
Outline: as §1

[24] = biological target: Neu5Ac(a2-3)Gal(b1-3)GalNAc(b1-4)[Neu5Ac(a2-8)Neu5Ac(a2-3)]Gal(b1-4)Glc
Outline: as §1

[25] = biological target: Neu5Ac(a2-3)Gal(b1-3)GalNAc6S
Outline: as §1

[26] = biological target: Neu5Ac(a2-3)Gal(b1-3)GlcNAc
Outline: as §1

[27] = biological target: Neu5Ac(a2-3)Gal(b1-3)GlcNAc(b1-2)Man
Outline: as §1

[28] = biological target: Neu5Ac(a2-3)Gal(b1-3)GlcNAc(b1-2)Man(a1-3)[GlcNAc(b1-4)][Neu5Ac(a2-3)Gal(b1-3)GlcNAc(b1-2)Man(a1-6)]Man(b1-4)GlcNAc(b1-4)GlcNAc
Outline: as §1

[29] = biological target: Neu5Ac(a2-3)Gal(b1-3)GlcNAc(b1-2)Man(a1-3)[Neu5Ac(a2-3)Gal(b1-3)GlcNAc(b1-2)Man(a1-6)]Man(b1-4)GlcNAc(b1-4)GlcNAc
Outline: as §1

[30] = biological target: Neu5Ac(a2-3)Gal(b1-3)GlcNAc(b1-2)[Neu5Ac(a2-3)Gal(b1-3)GlcNAc(b1-4)]Man(a1-6)[Neu5Ac(a2-3)Gal(b1-3)GlcNAc(b1-2)Man(a1-3)]Man(b1-4)GlcNAc(b1-4)GlcNAc
Outline: as §1

[31] = biological target: Neu5Ac(a2-3)Gal(b1-3)GlcNAc(b1-3)Gal(b1-3)GlcNAc
Outline: as §1

[32] = biological target: Neu5Ac(a2-3)Gal(b1-3)GlcNAc(b1-3)Gal(b1-4)GlcNAc
Outline: as §1

[33] = biological target: Neu5Ac(a2-3)Gal(b1-3)GlcNAc(b1-3)GalNAc
Outline: as §1

B1: MpAFP NterminalRI GFP (Marinomonas primoryensis) (protein)
chain: MSDNQFPFATLGNAIGFITKLDGSVTVQSIDGQERVLKLGDPIFFGETVLTGGSGSVTIAFVDGTDVVIGGDSIVEMTDEIYNTGDNEDLVADSSSEIDALQNAILAGDDPTLIQDAPAAGNTLADQQRVDVSIERNDNSAQAGFGVDTQSSLPTYGYDTDNGNGGQATEREYSAPSLSRTLNQSPLLEHHHHHH
[1]
  glycan array binding signal (z-score): -0.347
[2]
  glycan array binding signal (z-score): -0.337
[3]
  glycan array binding signal (z-score): -0.43
[4]
  glycan array binding signal (z-score): 0.165
GlcNAc(b1-6)GalNAc
  glycan array binding signal (z-score): -0.604
[5]
  glycan array binding signal (z-score): 0.005
Kdn(a2-3)Gal(b1-3)GalNAc
  glycan array binding signal (z-score): -0.444
Kdn(a2-3)Gal(b1-3)GlcNAc
  glycan array binding signal (z-score): -0.557
Kdn(a2-3)Gal(b1-4)Glc
  glycan array binding signal (z-score): -0.25
Kdn(a2-3)Gal(b1-4)GlcNAc
  glycan array binding signal (z-score): -0.389
[6]
  glycan array binding signal (z-score): -0.182
Kdn(a2-6)Gal(b1-4)GlcNAc
  glycan array binding signal (z-score): -0.455
[7]
  glycan array binding signal (z-score): -0.451
[8]
  glycan array binding signal (z-score): -0.386
Man(a1-2)Man(a1-3)Man
  glycan array binding signal (z-score): -0.312
[9]
  glycan array binding signal (z-score): 2.93
[10]
  glycan array binding signal (z-score): -0.398
[11]
  glycan array binding signal (z-score): 0.014
[12]
  glycan array binding signal (z-score): -0.185
[13]
  glycan array binding signal (z-score): -0.447
[14]
  glycan array binding signal (z-score): -0.484
Man(a1-3)[Man(a1-6)]Man
  glycan array binding signal (z-score): 0.278
[15]
  glycan array binding signal (z-score): -0.318
[16]
  glycan array binding signal (z-score): 0.916
[17]
  glycan array binding signal (z-score): -0.182
[18]
  glycan array binding signal (z-score): 0.545
[19]
  glycan array binding signal (z-score): -0.195
Man(a1-6)Man
  glycan array binding signal (z-score): -0.025
Man(b1-4)GlcNAc
  glycan array binding signal (z-score): 0.871
MurNAc(b1-4)GlcNAc
  glycan array binding signal (z-score): -0.207
Neu5Ac(a2-3)Gal
  glycan array binding signal (z-score): -0.398
[20]
  glycan array binding signal (z-score): -0.125
[21]
  glycan array binding signal (z-score): -0.494
[22]
  glycan array binding signal (z-score): -0.428
[23]
  glycan array binding signal (z-score): -0.314
[24]
  glycan array binding signal (z-score): -0.446
[25]
  glycan array binding signal (z-score): -0.078
[26]
  glycan array binding signal (z-score): -0.477
[27]
  glycan array binding signal (z-score): -0.458
[28]
  glycan array binding signal (z-score): -0.144
[29]
  glycan array binding signal (z-score): 2.29
[30]
  glycan array binding signal (z-score): 0.13
[31]
  glycan array binding signal (z-score): -0.568
[32]
  glycan array binding signal (z-score): -0.057
[33]
  glycan array binding signal (z-score): -0.388
